# Measurements from the supplement of paper PMC3334620.
# In all, about 33,000 sequences were measured (“E-score (-0.5 to 0.5)”: median about -0.043, highest 2% from about 0.37 on). The list shows a part of the results.
# Molecular target: T1, Upc2 (UniProt Q12151)
# T1 sequence: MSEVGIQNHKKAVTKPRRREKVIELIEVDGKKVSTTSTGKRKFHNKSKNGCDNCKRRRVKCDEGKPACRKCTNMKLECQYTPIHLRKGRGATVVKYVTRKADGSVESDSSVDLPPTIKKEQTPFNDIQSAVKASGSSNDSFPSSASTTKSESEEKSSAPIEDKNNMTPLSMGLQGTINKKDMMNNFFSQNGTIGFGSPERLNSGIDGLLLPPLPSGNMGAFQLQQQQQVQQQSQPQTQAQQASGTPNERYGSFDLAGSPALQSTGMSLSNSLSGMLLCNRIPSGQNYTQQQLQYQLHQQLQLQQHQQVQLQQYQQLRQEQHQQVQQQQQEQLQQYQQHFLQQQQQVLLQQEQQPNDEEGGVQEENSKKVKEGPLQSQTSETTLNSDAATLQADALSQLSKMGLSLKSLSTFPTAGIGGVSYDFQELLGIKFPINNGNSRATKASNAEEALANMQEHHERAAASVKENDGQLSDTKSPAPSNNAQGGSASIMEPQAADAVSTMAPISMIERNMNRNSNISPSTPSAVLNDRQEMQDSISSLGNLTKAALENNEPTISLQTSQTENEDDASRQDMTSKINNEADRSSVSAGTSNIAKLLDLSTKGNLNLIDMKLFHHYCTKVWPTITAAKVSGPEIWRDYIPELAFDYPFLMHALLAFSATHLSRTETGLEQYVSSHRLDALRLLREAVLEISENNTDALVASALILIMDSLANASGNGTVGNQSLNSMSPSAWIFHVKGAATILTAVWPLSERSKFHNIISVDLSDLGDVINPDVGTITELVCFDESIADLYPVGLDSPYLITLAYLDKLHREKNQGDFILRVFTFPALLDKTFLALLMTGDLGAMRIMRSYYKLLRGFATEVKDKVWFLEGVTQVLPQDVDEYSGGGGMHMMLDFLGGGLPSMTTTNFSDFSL
# Experiment: PBM E-score (8-mer binding enrichment) (E-score (-0.5 to 0.5)); higher = stronger / more preferred TF binding; most listed sequences are background and not binding sites
# Conditions: protein concentration: 200 nM; construct: GST-full length
# Protocol: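 Universal 'all 10-mer' protein binding microarrays (Agilent AMADID 015681) probed with GST-tagged S. cerevisiae TFs (full-length or DBD) made by in vitro transcription/translation (PURExpress), about 100-200 nM. Bound TF was detected with fluorescent anti-GST. Each ungapped 8-mer (which stands for itself and its reverse complement) is scored by the PBM enrichment score (E-score), a modified Wilcoxon-Mann-Whitney statistic from -0.5 to +0.5, computed with the Universal PBM Analysis Suite. Scale: above 0.35 generally sequence-specific binding.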
row,Sequence,PBM E-score
1,CAAATTTG,0.0684
2,TACACCCA,0.0255
3,GGCGTTTA,0.378
4,GTTTACTA,0.224
5,AAGTTAAC,0.204
6,CGTATGTC,0.353
7,ACTATCTC,0.0406
8,CCAATCCC,-0.13
9,CAACTCTC,-0.179
10,CCACTCTC,-0.106
11,CCGACCAA,0.091
12,GGGCAGCA,-0.226
13,AGGCTCGA,-0.00658
14,AGCCCATC,0.0339
15,ACGACACT,0.337
16,ACAGTCGC,0.0291
17,ACGAGTGG,0.295
18,AGTGATTG,-0.222
19,CCGGTGGA,0.0139
20,ATTCTAGA,-0.142
21,ACGTCGTA,0.458
22,GCAAGACA,-0.136
23,GTTAATAA,0.0665
24,CTGTCGAC,-0.0395
25,CCACGGCG,-0.0352

row,Sequence,PBM E-score
1,TGGCCCAA,-0.151
2,CCAGGTCG,0.0394
3,AAGGTAGG,-0.138
4,CGATCATA,0.0929
5,GAGGAAAA,0.0211
6,AACGGTCT,0.146
7,AAACACTG,-0.0296
8,CAGGTCAA,-0.178
9,GGACGCCC,-0.129
10,TGGTGAAA,-0.0343
11,CAGGCAAG,-0.298
12,CTGCAGCA,-0.0875
13,CGCCGCCC,-0.0467
14,CTTCAGTA,-0.0281
15,TAAAACCA,0.0273
16,ACGCGCTA,0.251
17,ATCTGCGC,-0.106
18,GCATGCAA,0.165
19,GGTCAGGA,-0.205
20,GGATAGCA,0.147
21,CTTCCTAC,-0.272
22,CTGTTAGA,-0.122
23,GGGTCTAC,-0.107
24,CACGGATC,-0.00462
25,ACCTAAAT,0.0691

row,Sequence,PBM E-score
1,CTAACTTA,-0.03
2,GAACCAGC,-0.164
3,ATAGTGTG,-0.129
4,GCACCTGC,-0.26
5,GTGAGTGA,-0.107
6,ACCCTAAC,0.053
7,AATGATAG,0.137
8,ATCGTTTG,0.452
9,GCCAAAGC,-0.223
10,GACTACAC,0.121
11,ATCGCAGA,-0.0673
12,ACTAAGCG,0.283
13,CACGGCAA,0.0197
14,CACAGGGC,-0.161
15,AACATCAG,-0.0349
16,TACGGAAA,0.269
17,CGTGCCCA,0.00732
18,AAATGGTC,-0.0155
19,TACCGACA,0.133
20,ATCTCAGC,-0.0791
21,AAAGCCAT,0.048
22,CGCATTCC,-0.298
23,CGCCGCTC,-0.0776
24,ATGATATC,0.0825
25,ATGAGCCA,-0.0949

row,Sequence,PBM E-score
1,CCCCACGC,-0.291
2,CAGGGATC,-0.203
3,GACAAATA,0.046
4,AGGACTCG,0.0672
5,TGATTGCA,-0.00951
6,ACCCGCAC,0.00507
7,CAGACGGG,-0.261
8,AGGATTGC,-0.128
9,AAATCCCG,-0.0108
10,CGAGAATC,0.189
11,ATCGACCA,-0.148
12,ACACAATC,-0.0928
13,CCCGCCTA,0.113
14,GGATTAAC,0.0446
15,CGTCTAGC,0.0496
16,AATAAGAC,-0.0862
17,AAGCCCGA,-0.159
18,CACTATTC,-0.0745
19,AAGGATGA,-0.191
20,CATGCACG,-0.0673
21,AAGTTCGG,-0.0746
22,AAGAGATG,-0.198
23,CTGGACCA,-0.153
24,TGTCAGAA,-0.159
25,GCTACAAA,0.0259

row,Sequence,PBM E-score
1,ACGTTGAA,0.0392
2,ATGCAACC,0.00387
3,AGACGTTA,-0.0933
4,GACCTTGA,-0.143
5,AGGTAGGG,-0.164
6,AAACATCA,-0.11
7,AGAATTCC,-0.11
8,GGTGCCAA,-0.187
9,ACACTTGG,-0.161
10,ATCGGCTC,-0.0153
11,ACTTCGAG,-0.178
12,CTGGTCGA,-0.182
13,GATAGTTA,0.202
14,AATTCGAA,-0.0411
15,CTAGCTCA,-0.0951
16,CATGGATC,-0.276
17,AGTATGCC,-0.189
18,AGGAGCAA,-0.253
19,CACGTGAG,-0.248
20,GCCCGATA,-0.0847
21,CCGCAAAG,0.0459
22,ACGGTTTC,0.137
23,GCACATAC,-0.0676
24,ACGTCTCA,0.00539
25,TCCGAGCA,0.176

row,Sequence,PBM E-score
1,ACCTAGCA,-0.0633
2,CCAAAGGC,-0.134
3,AAGATATG,-0.0829
4,GAAGGCAA,-0.0802
5,CGTAGTAA,0.0705
6,AATCCAGG,0.0108
7,AATGCGAT,0.0549
8,ACAGACGA,0.203
9,GAGTGGAA,-0.0959
10,AGGGCCAA,-0.283
11,ACGTCAGC,0.119
12,AGCCAATC,-0.0383
13,GCTATGAC,-0.041
14,CCGTCACG,-0.12
15,CATCAAGA,-0.0978
16,AACGTAAC,0.245
17,AAAAGTCT,-0.0158
18,TGAATACA,-0.0538
19,CAAAATAG,-0.197
20,AGCATGGA,-0.303
21,AGCGACAG,0.284
22,TACGGCGA,0.324
23,GTACAATA,0.156
24,AGAGCATC,-0.226
25,GGCGGCGA,-0.177

row,Sequence,PBM E-score
1,CCGAGTAC,0.196
2,CCTATAAC,-0.0397
3,AAGTCGTA,0.416
4,ATATATCG,0.152
5,GGGGGCAA,-0.144
6,ACTCCCTG,-0.33
7,CAGACCTC,0.0775
8,CAGGGCAA,-0.199
9,AGTCAACA,-0.0625
10,GATCTCCC,-0.162
11,ACAACAAT,-0.0483
12,ATGCAGTC,-0.0606
13,CACCCGAG,0.109
14,ACTTGGCT,-0.162
15,AGCTATTC,-0.0169
16,GGCGCTCA,-0.109
17,CTAACAGA,-0.187
18,AGCGACTC,0.0463
19,GTGGTGTA,0.0456
20,GCTAGTCA,-0.209
21,GGTGAAAA,0.0377
22,CGCAGAGA,-0.0125
